Drawing on the RNAGym collection of RNA variant scans (doi:10.7554/elife.90254), this text covers self-cleavage for 84 variants.

To fix the notation:
B1: OR4K15 (parent)
chain: GUUAACGGUCAUAGGCCAUGGAAACUAGGAGCACCAUUUCGCUGCCAGUGAAGAAAUGAACAAAGAAAAUCUGGGCCAGGCAGGCAUCAAAAGAAAUAGUCUUGCGCUCAACCAGAAAGUCUGUAAUCAUUUUAAGGGUA

Read counts are not given, so values of variants with three or more changes are uncertain.

In this data set the parent is B1. Kind of data set: self-cleavage, relative activity (ratio to wild type); higher = more cleavage; in vitro, sequencing; the parent is a self-cleaving ribozyme.
Take U37C U103A U130C U132A: the self-cleavage was found to be 0.16.
The value for A36G A55G U100C A110G was 0.15; that for A36C A60C A66G was 1.23.
With U37C A47G A69G U100C, the self-cleavage came out at 1.78.
On to U38A A52G A92G, for which the self-cleavage turned out to be 1.19.
For A36G A56G A82G U127C, the self-cleavage came out at 0.11.
The value for U37C A62G U100C A116G was 1.42; that for U37A U38C A95G was 1.81; that for C35G A56U U102C A117G was 2.11.
Under C35A A55G A60G stands 0.23; under U37C C46U A67U A89G A96G, 1.31; under A36U U43A C45U A69U U72C U102A, 0.28.
Under U37C G73U A116G A126G stands 0.01; under U37G U49C U72C, 0.34.
As for A33U U39A A126C, the self-cleavage came to 0.66.
Under A36G U49A A82G stands 0.44; under U37C C61A A63G A67G, 1.49; under A36G A47G A67G A89G, 1.04.
On to U37C A90G U108A, for which the self-cleavage amounted to 0.02.
The value for U37C U87C A118G was 1.04; that for U37C U49A A117G was 1.64; that for U37A A51G A69U A78G was 0.26.
Under U37C U100C U124A stands 1.12.
As for U37C U70C G93U, the self-cleavage came to 1.04.
In the case of U37C A55G A62G A91G U108C A126G, the self-cleavage was found to be 0.03.
Turning to U37C A52G U131C, the self-cleavage turned out to be 1.03.
Consider C35U U43C A67G, for which the self-cleavage is 0.88.
A36G U108C U132C: the self-cleavage stood at 0.01.
Under A36U C45U A69G U127G stands 0.71; under A36G U49C A63G, 1.81.
The value for C35U U49C G119A was 0.7; that for U37C U39C A68G A94G was 1.2.
Regarding U37C C77U A82G U120C, the self-cleavage was found to be 1.29.
The value for U37C U39C C105U A117U A129G was 0; that for A36C A63G U70C C105A was 0.04; that for A36U A86G U100A A114C was 0.02.
A36G G53A A91G U100C: the self-cleavage is 1.99.
With U37C A64G A86G, the self-cleavage came out at 1.13.
Under U37G A95G A96G U120A stands 1.71; under U37C A55G G123A A129G, 0.34; under U37C U57C A59U, 1.17.
The value for U37A A62C A82G A95G A117G A125G A129G was 0.03; that for U37C A64U A126G U130C was 0.51.
As to C35A A56G A78U U103G C112U A117G U130C, the self-cleavage is 0.
For the variant U37C A52G G65A A66G G74A, the self-cleavage was determined as 0.19.
Consider U37C U70C U127C, for which the self-cleavage came to 0.2.
The value for C35U A86G A92U A117G U124C was 0.65.
On to U37C A47G A63G U87C, for which the self-cleavage was determined as 1.31.
For U37C A82G U132C, the self-cleavage was determined as 0.49.
Under A36U U43C U70C A90U U108C A118G stands 0.01.
The value for U37C U38G U49C A91G was 1.12; that for U37C A55G U100C A110G was 0.18; that for U37C A86U A110G A126G was 0.06.
Consider A36G A59G A82C U102C U103C A126G, for which the self-cleavage stood at 0.03.
As for U37C U70A G75C, the self-cleavage was 0.2.
Under U37G G41U A110U stands 2.64.
Under A33U U43C A59U stands 1.52.
Under U37C A60G G104A A110G A111C stands 0.02.
Turning to U38A A54U A117U, the self-cleavage was 1.2.
The value for A36C A82G A92G A118U U139G was 0.07.
With U37C A51U A60G A86G A116G, the self-cleavage amounted to 0.15.
Under C34U U72A A95G A98G U108C A114U stands 0.
Under U37C A55G U130G stands 1.57; under A36G A55U C101U, 0.11.
The value for U37C A67G A86G C113U was 0.02; that for U37C U103C A114G A134G A135G was 0.12.
Turning to C35G C40U U70A, the self-cleavage came to 0.64.
U37C U57C U103C: the self-cleavage stood at 0.15.
In the case of U37C A63G U72A A91G A94G A117G, the self-cleavage came to 0.18.
For U37C A52U U124C, the self-cleavage worked out at 0.71.
The value for A36G U87C A111U A114G was 0.04; that for A36G A69G A86G was 2.46; that for U37C A52G A117G U124A was 1.78.
Under U37C G48A A59G A110G stands 0.04; under U37C A54G A55G A86G A91G, 0.08; under A36U A59G U127C, 0.94.
In the case of U38A A54G A66G A96G A114C A117G, the self-cleavage was 0.02.
Regarding A36U A52G A92G C113U U139C, the self-cleavage amounted to 0.07.
In the case of A36G A55G U70C, the self-cleavage was determined as 0.33.
Take U37C G65U A68G: the self-cleavage was determined as 0.67.
The value for A36G U97A A110G A129G was 0.02; that for U37C U57A A82G U87A U122C A140G was 0.12; that for U37C A56G A98G was 0.96.
The value for C34U U39C U43A A111U was 0.14.
